Measured values reported in US20250361279A1 (Hoffmann-La Roche, published 2025).
Where two headings read alike, the source gives them in different places. Each block holds one binder with its values, some of them ahead of it.

Tests used:
[1] = biological target: T1, IL-7 receptor (IL-7R alpha chain and common gamma chain) on human T cells (human, UniProt P16871 21-459; P31785 23-369); test: cell-based or functional assay
T1 sequence (looked up) 1: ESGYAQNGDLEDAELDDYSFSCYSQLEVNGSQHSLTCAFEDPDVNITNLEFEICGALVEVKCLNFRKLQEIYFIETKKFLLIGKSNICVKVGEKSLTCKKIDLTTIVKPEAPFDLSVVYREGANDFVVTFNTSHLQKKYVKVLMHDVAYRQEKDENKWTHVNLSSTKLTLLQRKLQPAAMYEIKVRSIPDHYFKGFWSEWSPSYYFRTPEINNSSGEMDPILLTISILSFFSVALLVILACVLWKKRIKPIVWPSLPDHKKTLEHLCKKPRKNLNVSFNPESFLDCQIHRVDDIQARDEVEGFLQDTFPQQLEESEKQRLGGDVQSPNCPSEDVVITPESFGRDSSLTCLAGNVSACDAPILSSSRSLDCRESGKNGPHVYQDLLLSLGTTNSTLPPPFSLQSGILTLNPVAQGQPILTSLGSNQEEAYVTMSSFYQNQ
T1 sequence (looked up) 2: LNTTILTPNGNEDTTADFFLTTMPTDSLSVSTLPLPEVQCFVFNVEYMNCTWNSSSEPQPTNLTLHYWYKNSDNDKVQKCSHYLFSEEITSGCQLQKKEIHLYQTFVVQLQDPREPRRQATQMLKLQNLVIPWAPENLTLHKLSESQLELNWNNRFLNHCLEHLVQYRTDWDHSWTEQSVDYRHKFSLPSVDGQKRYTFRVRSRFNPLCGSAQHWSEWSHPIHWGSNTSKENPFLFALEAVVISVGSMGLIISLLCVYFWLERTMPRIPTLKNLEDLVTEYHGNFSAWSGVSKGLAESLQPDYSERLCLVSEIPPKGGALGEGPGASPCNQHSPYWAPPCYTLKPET

[2] = biological target: T2, human PD-1 on activated CD4 T cells (human, UniProt Q15116 25-288); test: cell-based or functional assay
[3] = biological target: T1, IL-7 receptor (IL-7R alpha chain and …); test: cell-based or functional assay; remark: listed apart in the source
[4] = biological target: T2, human PD-1 on activated CD4 T cells; test: cell-based or functional assay; remark: listed apart in the source
[5] = biological target: T1, IL-7 receptor (IL-7R alpha chain and …); test: cell-based or functional assay; remark: listed apart in the source
[6] = biological target: T2, human PD-1 on activated CD4 T cells; test: cell-based or functional assay; remark: listed apart in the source
[7] = biological target: T1, IL-7 receptor (IL-7R alpha chain and …); test: cell-based or functional assay; remark: listed apart in the source
[8] = biological target: T1, IL-7 receptor (IL-7R alpha chain and …); test: flow cytometry, fresh PBMCs, naive (TCF-1+ PD-1-) CD4 T cells; parameters: unit not given beside the values
[9] = biological target: T1, IL-7 receptor (IL-7R alpha chain and …); test: as above
[10] = biological target: T1, IL-7 receptor (IL-7R alpha chain and …); test: flow cytometry, fresh PBMCs, naive (TCF-1+ PD-1-) CD8 T cells; parameters: unit not given beside the values
[11] = biological target: T1, IL-7 receptor (IL-7R alpha chain and …); test: as above
[12] = biological target: T1, IL-7 receptor (IL-7R alpha chain and …); test: flow cytometry, fresh PBMCs, bystander (PD-1- TCF-1-) CD4 T cells; parameters: unit not given beside the values
[13] = biological target: T1, IL-7 receptor (IL-7R alpha chain and …); test: as above
[14] = biological target: T1, IL-7 receptor (IL-7R alpha chain and …); test: flow cytometry, fresh PBMCs, bystander (PD-1- TCF-1-) CD8 T cells; parameters: unit not given beside the values
[15] = biological target: T1, IL-7 receptor (IL-7R alpha chain and …); test: as above
[16] = biological target: T1, IL-7 receptor (IL-7R alpha chain and …); test: cell-based or functional assay; remark: listed apart in the source
[17] = biological target: T2, human PD-1 on activated CD4 T cells; test: cell-based or functional assay; remark: listed apart in the source
[18] = biological target: T1, IL-7 receptor (IL-7R alpha chain and …); test: cell-based or functional assay; remark: listed apart in the source
[19] = biological target: T2, human PD-1 on activated CD4 T cells; test: cell-based or functional assay; remark: listed apart in the source
[20] = biological target: T1, IL-7 receptor (IL-7R alpha chain and …); test: cell-based or functional assay; remark: listed apart in the source

- Potency reduction to PD1-IL7wt: EC50 (PD1+)/EC50 (PD1-IL7wt) [1]: 0.6 fold
- STAT-5P AUC, PD1+ CD4 T cells [1]: 117
- STAT-5P AUC, PD1-blocked CD4 T cells [1]: 110
- Cis-delivery: fold increase in EC50, EC50 [with PD1bl]/EC50 [no PD1bl] [2]: 0.9 fold
- Delta AUC (PD1+ vs PD1bl.) [2]: 7.3
- Potency reduction to PD1-IL7wt: EC50 (PD1+)/EC50 (PD1-IL7wt) [3]: 9.4 fold
- STAT-5P AUC, PD1+ CD4 T cells [3]: 103
- STAT-5P AUC, PD1-blocked CD4 T cells [3]: 99.6
- Cis-delivery: fold increase in EC50, EC50 [with PD1bl]/EC50 [no PD1bl] [4]: 0.9 fold
- Delta AUC (PD1+ vs PD1bl.) [4]: 3
- Potency reduction to PD1-IL7wt: EC50 (PD1+)/EC50 (PD1-IL7wt) [5]: 1 fold
- Cis-delivery: fold increase in EC50, EC50 [with PD1bl]/EC50 [no PD1bl] [6]: 1 fold
- EC50[active]/EC50 [active PD1-IL7wt] [7]: 0.8 fold
- EC50[fresh]/EC50 [fresh PD1-IL7wt] [7]: 0.5 fold
- AUC of dose-response binding (frequency of anti-PGLALA+ cells) [8]: 385
- fold reduction in binding compared to P1AF7303 [9]: 1 fold
- AUC of dose-response binding (frequency of anti-PGLALA+ cells) [10]: 396
- fold reduction in binding compared to P1AF7303 [11]: 1 fold
- AUC of dose-response binding (frequency of anti-PGLALA+ cells) [12]: 290
- fold reduction in binding compared to P1AF7303 [13]: 1 fold
- AUC of dose-response binding (frequency of anti-PGLALA+ cells) [14]: 248
- fold reduction in binding compared to P1AF7303 [15]: 1 fold
B1: P1AF7303 (Control: FAP (4B9) IgG kh PGLALA huIL7wt; 3G4S linker) (other)
light: EIVLTQSPGTLSLSPGERATLSCRASQSVTSSYLAWYQQKPGQAPRLLINVGSRRATGIPDRFSGSGSGTDFTLTISRLEPEDFAVYYCQQGIMLPPTFGQGTKVEIKRTVAAPSVFIFPPSDEQLKSGTASVVCLLNNFYPREAKVQWKVDNALQSGNSQESVTEQDSKDSTYSLSSTLTLSKADYEKHKVYACEVTHQGLSSPVTKSFNRGEC
heavy 1: EVQLLESGGGLVQPGGSLRLSCAASGFTFSSYAMSWVRQAPGKGLEWVSAIIGSGASTYYADSVKGRFTISRDNSKNTLYLQMNSLRAEDTAVYYCAKGWFGGFNYWGQGTLVTVSSASTKGPSVFPLAPSSKSTSGGTAALGCLVKDYFPEPVTVSWNSGALTSGVHTFPAVLQSSGLYSLSSVVTVPSSSLGTQTYICNVNHKPSNTKVDKKVEPKSCDKTHTCPPCPAPEAAGGPSVFLFPPKPKDTLMISRTPEVTCVVVDVSHEDPEVKFNWYVDGVEVHNAKTKPREEQYNSTYRVVSVLTVLHQDWLNGKEYKCKVSNKALGAPIEKTISKAKGQPREPQVCTLPPSRDELTKNQVSLSCAVKGFYPSDIAVEWESNGQPENNYKTTPPVLDSDGSFFLVSKLTVDKSRWQQGNVFSCSVMHEALHNHYTQKSLSLSPGK
heavy 2: EVQLLESGGGLVQPGGSLRLSCAASGFTFSSYAMSWVRQAPGKGLEWVSAIIGSGASTYYADSVKGRFTISRDNSKNTLYLQMNSLRAEDTAVYYCAKGWFGGFNYWGQGTLVTVSSASTKGPSVFPLAPSSKSTSGGTAALGCLVKDYFPEPVTVSWNSGALTSGVHTFPAVLQSSGLYSLSSVVTVPSSSLGTQTYICNVNHKPSNTKVDKKV[sequence of human IgG1 Fc with changes omitted]GGGGSGGGGSGGGGSDCDIEGKDGKQYESVLMVSIDQLLDSMKEIGSNCLNNEFNFFKRHICDANKEGMFLFRAARKLRQFLKMNSTGDFDLHLLKVSEGTTILLNCTGQVKGRKPAALGEAQPTKSLEENKSLKEQKKLNDLCFLKRLLQEIKTCWNKILMGTKEH
notes: Untargeted control: anti-FAP IgG1 knob-into-hole PGLALA with human IL-7 wild-type on the knob heavy chain; also called FAP-IL7 wt; FAP-IL7wt

- Potency reduction to PD1-IL7wt: EC50 (PD1+)/EC50 (PD1-IL7wt) [16]: 1 fold
- STAT-5P AUC, PD1+ CD4 T cells [16]: 157
- STAT-5P AUC, PD1-blocked CD4 T cells [16]: 125
- Cis-delivery: fold increase in EC50, EC50 [with PD1bl]/EC50 [no PD1bl] [17]: 1.5 fold
- Delta AUC (PD1+ vs PD1bl.) [17]: 32
- Potency reduction to PD1-IL7wt: EC50 (PD1+)/EC50 (PD1-IL7wt) [18]: 1 fold
- STAT-5P AUC, PD1+ CD4 T cells [18]: 173
- STAT-5P AUC, PD1-blocked CD4 T cells [18]: 143
- Cis-delivery: fold increase in EC50, EC50 [with PD1bl]/EC50 [no PD1bl] [19]: 1.3 fold
- Delta AUC (PD1+ vs PD1bl.) [19]: 30.5
- Percentage of rescued Granzyme B production by Tconv (Treg suppression assay, 6 nM) [20]: 238%
- Percentage of suppressed Granzyme B production by Tconv (Treg suppression assay, 6 nM) [20]: -138%
- Potency reduction to PD1-IL7wt: EC50 (PD1+)/EC50 (PD1-IL7wt) [1]: 1 fold
- STAT-5P AUC, PD1+ CD4 T cells [1]: 139
- STAT-5P AUC, PD1-blocked CD4 T cells [1]: 110
- Cis-delivery: fold increase in EC50, EC50 [with PD1bl]/EC50 [no PD1bl] [2]: 2.4 fold
- Delta AUC (PD1+ vs PD1bl.) [2]: 29
- Potency reduction to PD1-IL7wt: EC50 (PD1+)/EC50 (PD1-IL7wt) [3]: 1 fold
- STAT-5P AUC, PD1+ CD4 T cells [3]: 141
- STAT-5P AUC, PD1-blocked CD4 T cells [3]: 109
- Cis-delivery: fold increase in EC50, EC50 [with PD1bl]/EC50 [no PD1bl] [4]: 4.2 fold
- Delta AUC (PD1+ vs PD1bl.) [4]: 32.2
- Potency reduction to PD1-IL7wt: EC50 (PD1+)/EC50 (PD1-IL7wt) [5]: 1 fold
- Cis-delivery: fold increase in EC50, EC50 [with PD1bl]/EC50 [no PD1bl] [6]: 2 fold
- EC50[active]/EC50 [active PD1-IL7wt] [7]: 1 fold
- EC50[fresh]/EC50 [fresh PD1-IL7wt] [7]: 1 fold
- AUC of dose-response binding (frequency of anti-PGLALA+ cells) [8]: 253
- fold reduction in binding compared to P1AF7303 [9]: 1.52 fold
- AUC of dose-response binding (frequency of anti-PGLALA+ cells) [10]: 259
- fold reduction in binding compared to P1AF7303 [11]: 1.53 fold
- AUC of dose-response binding (frequency of anti-PGLALA+ cells) [12]: 162
- fold reduction in binding compared to P1AF7303 [13]: 1.79 fold
- AUC of dose-response binding (frequency of anti-PGLALA+ cells) [14]: 191
- fold reduction in binding compared to P1AF7303 [15]: 1.29 fold
B2: P1AH4515 (PD1-IL7wt, fully glycosylated) (other)
light: DIVMTQSPDSLAVSLGERATINCKASESVDTSDNSFIHWYQQKPGQSPKLLIYRSSTLESGVPDRFSGSGSGTDFTLTISSLQAEDVAVYYCQQNYDVPWTFGQGTKVEIKRTVAAPSVFIFPPSDEQLKSGTASVVCLLNNFYPREAKVQWKVDNALQSGNSQESVTEQDSKDSTYSLSSTLTLSKADYEKHKVYACEVTHQGLSSPVTKSFNRGEC
heavy 1: EVQLLESGGGLVQPGGSLRLSCAASGFSFSSYTMSWVRQAPGKGLEWVATISGGGRDIYYPDSVKGRFTISRDNSKNTLYLQMNSLRAEDTAVYYCVLLTGRVYFALDSWGQGTLVTVSSASTKGPSVFPLAPSSKSTSGGTAALGCLVKDYFPEPVTVSWNSGALTSGVHTFPAVLQSSGLYSLSSVVTVPSSSLGTQTYICNVNHKPSNTKVDKKVEPKSCDKTHTCPPCPAPEAAGGPSVFLFPPKPKDTLMISRTPEVTCVVVDVSHEDPEVKFNWYVDGVEVHNAKTKPREEQYNSTYRVVSVLTVLHQDWLNGKEYKCKVSNKALGAPIEKTISKAKGQPREPQVCTLPPSRDELTKNQVSLSCAVKGFYPSDIAVEWESNGQPENNYKTTPPVLDSDGSFFLVSKLTVDKSRWQQGNVFSCSVMHEALHNHYTQKSLSLSPG
heavy 2: EVQLLESGGGLVQPGGSLRLSCAASGFSFSSYTMSWVRQAPGKGLEWVATISGGGRDIYYPDSVKGRFTISRDNSKNTLYLQMNSLRAEDTAVYYCVLLTGRVYFALDSWGQGTLVTVSSASTKGPSVFPLAPSSKSTSGGTAALGCLVKDYFPEPVTVSWNSGALTSGVHTFPAVLQSSGLYSLSSVVTVPSSSLGTQTYICNVNHKPSNTKVDKKV[sequence of human IgG1 Fc with changes omitted]GGSGGGGSGGGGSGGDCDIEGKDGKQYESVLMVSIDQLLDSMKEIGSNCLNNEFNFFKRHICDANKEGMFLFRAARKLRQFLKMNSTGDFDLHLLKVSEGTTILLNCTGQVKGRKPAALGEAQPTKSLEENKSLKEQKKLNDLCFLKRLLQEIKTCWNKILMGTKEH
notes: Immunoconjugate: anti-PD-1 IgG1 (FV000363), knob-into-hole, PGLALA; human IL-7 wild-type fused to the C-terminus of the knob heavy chain; also called P1AH4515-005; P1AH4515-007
